The list shows a part of the results.
B1: 30731509_30731742_2321_CDS_ENSG00000099995_ENST00000215793|human|control|control (ssRNA)
RNA: GGGAGUUCUACAGUCCGACGAUCCACCUUAAUGACAGAGACCUGGUCCGUGAGUGGGAGGGUGAAGACCAGCACCUGCCCAUUCAGUUUCCAUUCCGUCUUAUCCUGCAUGUUGGGCACCUGGACUUUGAUGGACACUGGACCCAACAGAGGAUUGAGCAUCA
B2: chr6:33282685:33282686:-_ENSG00000236104_ENST00000431845|hu_mus|FALSE|FALSE (ssRNA)
RNA: GGGAGUUCUACAGUCCGACGAUCGACGGUGCAACCCACGCCCUUCUCUAGAAUAUAUACAAGUCCACCGAGGUAAGGGAAGACUGUUUGGUGGGGGAAACCCCGGGAGCCAUUGCUCUUAGACUAAGCUCCCCAAUUGCCUGCCAACAGAGGAUUGAGCAUCA
B3: chr7:7679991:7679992:-_ENSG00000106399_ENST00000396682|hu_hu|hu_hu_hu_mus_False|48_98 (ssRNA)
RNA: GGGAGUUCUACAGUCCGACGAUCUGGGAUGAAUCUUUUCCAGCCUCCCCACGAAGCACACGGGCCGGUCGAUAUACUGUGGUAACAUGCCGGCGUUGACGCGCGCUUUGGGGAGCUGCAUUAUGUCCUCCAUGAUUCUGCCGCCAACAGAGGAUUGAGCAUCA
B4: chr4:3761713:3761714:-_ENSMUSG00000028234_ENSMUST00000103009|mus_mus|motif|central (ssRNA)
RNA: GGGAGUUCUACAGUCCGACGAUCCUCAACUCCCGGCUCAAUACUGAUGGAAGUAAUCUGCUUAACAAUCUCAGAAGGACGGUGUAAAUCAAUGAGUCGCUUGUGGAUCCUCAUCUGGAAUCGAUCCCAGGUCUUGGAACCUUCCAACAGAGGAUUGAGCAUCA
B5: chr7:133995287:133995288:-_ENSMUSG00000030689_ENSMUST00000106343|mus_mus|motif|central (ssRNA)
RNA: GGGAGUUCUACAGUCCGACGAUCGCCUGCCUUUGUUCUCAGGAAUUCUUCUAUGAGAUUGAACUCUCCACUCUGGCCACGGAGACCCUGGAGGUCACAGUCUGGGACUACGACAUUGGCAAAUCCAAUGACUUCAUAGGUGAGCAACAGAGGAUUGAGCAUCA
B6: chr4:95690885:95690886:+_ENSMUSG00000028572_ENSMUST00000156910|mus_mus|mus_mus_mus_hu_False|18_88 (ssRNA)
RNA: GGGAGUUCUACAGUCCGACGAUCUUUAGAAAAUGUUAAAUACCAUGAGCAUGCUAAUUCAAAGGCUUAUUUUAUUUUACCAGAAGUCACAGGCAAGCAGACACUACAAGAAUAUAUAAAUACAAACCUCAACAAUAUAACUGUCAACAGAGGAUUGAGCAUCA
B7: chr18:38101097:38101098:-_ENSMUSG00000024454_ENSMUST00000043498|mus_hu|motif|central (ssRNA)
RNA: GGGAGUUCUACAGUCCGACGAUCGGUGCUGACAUCUGGAUGAAGUGUGAAGUCUGGGGCAAAGUACUCGAAGUAUUCACGGUAGGGAAGCUCCUCACUAAUGGCCUCUUCUACCAGCAGCGAUGUCUCAUAUGUCCAGCAGCGCAACAGAGGAUUGAGCAUCA
B8: chr2:114342542:114342543:-_ENSMUSG00000057147_ENSMUST00000102542|mus_mus|motif|central (ssRNA)
RNA: GGGAGUUCUACAGUCCGACGAUCCUGGGAUUAAAGGUGUACACCACUGCCUGGCUACGCAUGAUUCUUAAGACAGUAAAACGGUUGUGUUAUAGGAGUGUAAUGAUGCAUAUAUGUCUUUGAACAUUUGUUAAAUCCCGUGGACAACAGAGGAUUGAGCAUCA
B9: 137534387_137536831_709_CDS_ENSG00000094880_ENST00000394886|human|control|control (ssRNA)
RNA: GGGAGUUCUACAGUCCGACGAUCCUCCUCUAUCAACUGCAACUCUGUGUAUAUAUGAGCCAGAAAAAACUCUUUCAUCCAGGUGUCUGGCAAAGACAGGAACUUCAGCAUCUCUUUGUCUGUGAUCAGGUUACAGAGUUCUAACAACAGAGGAUUGAGCAUCA
B10: chr16:94653416:94653417:+_ENSMUSG00000040785_ENSMUST00000117648|mus_hu|FALSE|FALSE (ssRNA)
RNA: GGGAGUUCUACAGUCCGACGAUCCAUGAUACUAAAAUCAAGCAGUUUAAGAGAUGCUCCAUAACGAGAAAAGAAAGUUCCUGUGGCAUCUAAGCCAAAGCUAUUAAGUUUUUGGAUCCAGGCGGCUAAUUUGGGCUCCACUUCCAACAGAGGAUUGAGCAUCA
B11: chr10:131964826:131964827:+_ENSG00000108010_ENST00000331244|hu_mus|FALSE|FALSE (ssRNA)
RNA: GGGAGUUCUACAGUCCGACGAUCAUUAGAGUACGUUUUGAGCCCCUGUCGAACUUCUUCAUCUGAGAAGAUAUCAAAGCUGCUGAACUGAAUAUUGUGUUUGUGAAGGAUUUCCACCAUCUGCUUGCUGAAACCACAGCGUGGCAACAGAGGAUUGAGCAUCA
B12: chr7:30656748:30656749:+_ENSG00000106105_ENST00000389266|hu_mus|motif|central (ssRNA)
RNA: GGGAGUUCUACAGUCCGACGAUCAUCAGGAGAUAUUCCAACCUUCGUGAGGUAGAGGUAGAUGCGGCCAAUAAAAUAGCCGGAUACUGAGUUGUUAAUCACACCCUGUUCAACAGCAUCUCCCAGACGCAUCUUCCGAGCAGACAACAGAGGAUUGAGCAUCA
B13: chr11:43861564:43861565:+_ENSG00000149084_ENST00000278353|hu_mus|FALSE|FALSE (ssRNA)
RNA: GGGAGUUCUACAGUCCGACGAUCCAGUUUUGUAGCUACAAGGUAUGGCAUGACACUCUGCACAAAGAUGCCCUUGCUCUUAUACUCCUCAUGGAGGCACUGAGAGAAGAAAUCUACAAAGGCCUUGGUUGCAGAGUAGAUUGUCAACAGAGGAUUGAGCAUCA
B14: chr1:45244325:45244326:+_ENSG00000142937_ENST00000396651|hu_hu|motif|central (ssRNA)
RNA: GGGAGUUCUACAGUCCGACGAUCUUACAUGGGUGAAGACAAAACAAGGAUUUAUUUGCCUUUGCGGGCCUUGAUUUUCCGGAGAUAGAACUCCAACUCUUUGCCCUCUAGCACAUAGCCAUCUGCUCGGCCACACUGUCCCGGCAACAGAGGAUUGAGCAUCA

Each binder was assayed against T1, UNK ZnF1-3 (human, UniProt Q9C0B0 31-174) (assay: nsRBNS (natural sequence RNA bind-n-seq); RBNS binding buffer (assumed for nsRBNS): 25 mM Tris pH 7.5, 150 mM KCl, 3 mM MgCl2, 0.01% Triton X-100, 500 ug/ml BSA, 20 U/ml SUPERase-In, 4 C; UNK is unkempt and MSI1 is Musashi-1; names of the RNAs are library labels; protein concentration not given here; high values mean tight binding).
T1 sequence: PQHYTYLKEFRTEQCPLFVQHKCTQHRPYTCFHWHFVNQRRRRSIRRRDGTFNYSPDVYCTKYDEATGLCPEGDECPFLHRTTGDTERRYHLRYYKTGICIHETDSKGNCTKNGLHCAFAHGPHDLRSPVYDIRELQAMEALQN

Q: Which binding signal does the source give for B1 here?
A: The binding signal was 0.902 enrichment R.

Q: Which binding signal does the source give for B2 here?
A: The binding signal was 1.01 enrichment R.

Q: B3 was tested. Which binding signal did it give?
A: Its binding signal is 0.373 enrichment R.

Q: How did the binding signal turn out when B4 was run?
A: The binding signal was 1.37 enrichment R.

Q: For B5, which binding signal is on record?
A: Its binding signal is 1.17 enrichment R.

Q: B6 was tested. Which binding signal did it give?
A: The binding signal was 2.39 enrichment R.

Q: For B7, which binding signal is on record?
A: Its binding signal is 0.834 enrichment R.

Q: With B8 as the binder, how does the binding signal read?
A: The binding signal was 1.18 enrichment R.

Q: B9 was tested. Which binding signal did it give?
A: Its binding signal is 1.71 enrichment R.

Q: With B10 as the binder, how does the binding signal read?
A: Its binding signal is 1.3 enrichment R.

Q: With B11 as the binder, how does the binding signal read?
A: The binding signal was 0.682 enrichment R.

Q: B12 was tested. Which binding signal did it give?
A: Its binding signal is 1.07 enrichment R.

Q: For B13, which binding signal is on record?
A: Its binding signal is 0.748 enrichment R.

Q: With B14 as the binder, how does the binding signal read?
A: Its binding signal is 0.835 enrichment R.

Source: article PMC12136788
